Source: article PMC4336329 (PLoS ONE, 2015)
The whole screen tested about 310,000 compounds, of which about 14,000 (4.5%) showed an effect of 50% or more. The effect is printed as a negative number. The list shows a part of the results.

biological target: human ether-à-go-go-related gene (hERG) potassium channel (human, UniProt Q12809); assay: primary screen, population patch clamp on CHO cells stably expressing hERG
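Also: peak tail current of the secondary pulse compared with the same well before compound.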

Chain of human ether-à-go-go-related gene (hERG) potassium channel (Q12809 whole entry, looked up): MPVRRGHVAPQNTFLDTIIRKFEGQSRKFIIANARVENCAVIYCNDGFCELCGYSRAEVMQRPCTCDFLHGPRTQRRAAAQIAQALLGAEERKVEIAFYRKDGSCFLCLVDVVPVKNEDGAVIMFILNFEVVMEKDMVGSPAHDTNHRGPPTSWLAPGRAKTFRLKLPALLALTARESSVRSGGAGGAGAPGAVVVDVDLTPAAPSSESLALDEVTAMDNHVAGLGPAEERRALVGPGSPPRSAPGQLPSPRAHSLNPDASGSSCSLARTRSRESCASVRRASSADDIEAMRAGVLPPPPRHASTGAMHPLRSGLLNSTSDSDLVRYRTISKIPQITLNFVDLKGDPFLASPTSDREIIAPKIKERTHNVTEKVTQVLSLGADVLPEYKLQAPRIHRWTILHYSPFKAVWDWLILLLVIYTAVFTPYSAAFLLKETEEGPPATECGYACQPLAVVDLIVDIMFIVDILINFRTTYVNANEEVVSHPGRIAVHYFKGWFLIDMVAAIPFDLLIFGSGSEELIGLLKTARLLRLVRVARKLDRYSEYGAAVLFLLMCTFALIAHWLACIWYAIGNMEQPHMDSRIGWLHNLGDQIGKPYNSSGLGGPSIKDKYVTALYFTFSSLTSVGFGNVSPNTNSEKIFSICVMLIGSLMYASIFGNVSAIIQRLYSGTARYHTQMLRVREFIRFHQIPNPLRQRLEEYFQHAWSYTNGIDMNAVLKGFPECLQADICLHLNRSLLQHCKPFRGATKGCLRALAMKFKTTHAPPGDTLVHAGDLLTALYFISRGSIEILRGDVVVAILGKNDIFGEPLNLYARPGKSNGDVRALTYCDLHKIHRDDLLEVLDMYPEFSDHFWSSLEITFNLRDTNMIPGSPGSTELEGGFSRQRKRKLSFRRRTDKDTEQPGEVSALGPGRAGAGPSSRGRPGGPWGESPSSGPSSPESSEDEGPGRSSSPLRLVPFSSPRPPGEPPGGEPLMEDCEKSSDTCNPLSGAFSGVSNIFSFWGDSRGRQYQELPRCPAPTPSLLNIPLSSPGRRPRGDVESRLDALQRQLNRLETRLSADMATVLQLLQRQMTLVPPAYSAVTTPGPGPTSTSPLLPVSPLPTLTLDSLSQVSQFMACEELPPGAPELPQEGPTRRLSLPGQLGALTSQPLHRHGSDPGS

Compound | hERG current change (%, negative = inhibition) at 10uM [%]
COc1cccc(C(=O)C[n+]2ccccc2/C=N/O)c1.[Br-] | 16.8
N#CCSc1nc2ccc(N3CCCCC3)cc2c(=O)n1Cc1ccccc1 | 10.8
O=C(CSc1ncccc1-c1nc2ccccc2[nH]1)Nc1ccc2c(c1)OCCO2 | -30.8
Cc1cc(C)c(OCC(=O)Nc2ccc(NC(=O)c3ccco3)cc2)c([N+](=O)[O-])c1 | 22.7
O=C(Nc1nnc(CC(=O)N2CCOCC2)s1)c1cccs1 | 15.9
O=C(O)C(=O)O.O=C(c1ccccc1F)N1CCN(Cc2cccc(Cl)c2)CC1 | -25.4
[N-]=[N+]=NCC/C=C\C1NS(=O)(=O)OCC1O (stereo not drawn) | 8.7
CC(C)(C)c1csc(NC(=O)Cn2c(=O)oc3ccccc32)n1 | -26.1
CN(CC(=O)NC1CCN(Cc2ccccc2)CC1)S(=O)(=O)c1ccc(Br)s1 | -18
O=C(O)COCC(=O)NCc1nc(-c2ccc(C(F)(F)F)cc2)no1 | 19.1
CN(CC(=O)Nc1ccc(F)c(F)c1F)C(=O)CC1OC(=O)c2ccccc21 (stereo not drawn) | -27.6
COc1cccc(CN2CC(C(=O)NCCCn3ccnc3C)CCC2=O)c1 (stereo not drawn) | 15.1
Cc1ccc(CNC(=O)CN2CCN(c3ccc(F)cc3)CC2)cc1 | -50.8
COC(=O)C1=C(C)N(c2ccc(S(N)(=O)=O)cc2)C(=O)C1 | 7.89
CCOc1ccc(C(=O)C(C)OC(=O)Cn2c(C)csc2=O)cc1 (stereo not drawn) | -60.1
Cc1cc(F)ccc1S(=O)(=O)N(C(=O)c1ccncc1)c1ccc(OC(=O)c2ccncc2)cc1 | -2.62
CCC(=O)Nc1ccc(C(=O)NCc2ccccn2)cc1 | 7.23
O=C(NC1CC1)c1sccc1-n1cccc1 | 8.56
O=C(COc1ccccc1Cl)N1CCCC1 | 5.64
O=C(CN(C(=O)Cn1nnc(-c2ccc(F)cc2)n1)C1CCCC1)NC1CCCC1 | 4.13
CCCn1nc(C(=O)OCC(=O)c2c(N)n(C)c(=O)n(C)c2=O)c2ccccc2c1=O | -22.9
O=C(Nc1ccc2nn(-c3ccc(F)cc3)nc2c1)c1cccnc1 | 10.3

Compound | hERG current change (%, negative = inhibition) at 10uM [%]
Cc1ccc(C(=O)Nc2ccc(S(=O)(=O)N3CCN(C)CC3)cc2)o1 | 5.28
N#C/C(=C\c1c(N2CCC(C(N)=O)CC2)nc2ccccn2c1=O)C(=O)NC1CCCCC1 | 20.9
O=S(=O)(NCCc1ccccc1)c1ccccc1 | 2.61
O=[N+]([O-])/C(=C\Nc1ccc(F)cc1F)S(=O)(=O)c1ccccc1 | 17.8
Cl.O=C(CN1CCCCC1)Nc1cccc(Cl)c1 | -28.8
O=C(COC(=O)c1ccc(Cl)nc1)Nc1nnc(-c2ccccc2)o1 | -0.704
Cc1cc(OCn2ccc(C(=O)O)n2)ccc1Cl | 4.12
O=C(NCc1ccco1)c1ccccc1NS(=O)(=O)c1ccc2c(c1)OCCO2 | -13.8
CCS(=O)(=O)N1CCN(C(=O)c2ccco2)CC1 | 2.66
COc1cccc(C(=O)NCc2cn3ccsc3n2)c1 | 6.73
CCOC(=O)C1=C(C)Nc2ccccc2N=C1NC(=O)c1cccc(S(=O)(=O)N(C)C)c1 | -18.7
CCN(CC1COc2ccccc2O1)C(=O)CN1C(=O)NC(C)(c2ccc(C)cc2)C1=O (stereo not drawn) | -28.8
CN(C1CCCCC1)S(=O)(=O)c1ccc(NC(=O)CCC(=O)O)cc1 | 3
Cc1nn(-c2ccccc2)c(Cl)c1/C=C1/C(=N)N2N=C(C(C)C)SC2=NC1=O | 9.87
O=C(COc1ccccc1)N1CCN=C1SCc1ccc(F)cc1 | -27.4
Cc1c(C)c2c(OCC(=O)N[C@@H](C)C(=O)O)cc3c(c2oc1=O)CCC(C)(C)O3 | 16
COc1ccc(C(=O)Nc2ccccc2)cc1NC(=O)c1cccs1 | -74
CC(C)CCOC(=O)C1C(c2ccccc2)C(C(=O)O)C1c1ccccc1 (stereo not drawn) | 2.74
CCN(CC)C(=O)/C=C/c1ccccc1 | 6.73
COc1ccc2nc(C)c3c(c2c1)OC(C(C)(Cl)Br)C3 (stereo not drawn) | -34
CCn1c(=O)c(C(=O)Nc2ccccc2F)c(O)c2ccccc21 | 17.2
Cc1c(NC(=O)N(C)c2ccccc2)c(=O)n(-c2ccccc2)n1C | 12.6

Compound | hERG current change (%, negative = inhibition) at 10uM [%]
CCOC(=O)c1ccc(NC(=O)CCNS(=O)(=O)c2ccc3c(c2)oc(=O)n3C)cc1 | 6.45
COc1cc(OC)cc(C(=O)N[C@H](C(=O)Nc2ccc3c(c2)OCO3)C(C)C)c1 | 11
O=C(OCc1nnc(-c2ccccc2)o1)c1cc(S(=O)(=O)N2CCOCC2)c(Cl)cc1Cl | -19.9
CCOC(=O)c1[nH]ncc1CN1CCN(Cc2ccc(C)cc2)C(CCO)C1 (stereo not drawn) | -38.8
Cc1ccc(/C=N/NC(=O)c2cccc(S(=O)(=O)Nc3ccccc3Cl)c2)o1 | -31
O=C(Oc1cccc(-n2cnnn2)c1)c1ccccc1 | 9.86
O=C(CN(Cc1ccco1)S(=O)(=O)c1ccccc1)N/N=C/c1cccc(O)c1 | -1.69
CCCCCC(=O)N/N=C(\C)c1ccc(Cl)cc1 | 9.87
N#Cc1ccc(Cn2ccnc2C(=O)Nc2ccccc2)cc1 | -87
CC(C)C(=O)Nc1ccc2c(c1)C(=O)N(CCC(=O)O)C2=O | 20.7
COc1ccc(C(=O)Nc2ccccc2C(=O)NCCN2CCOCC2)cc1OC | 2.71
OCCn1c(CSc2nnc(-c3ccco3)n2-c2ccccc2)nc2ccc(Cl)cc21 | -24.2
COc1ccc(Cl)cc1N1C(=O)CN(Cc2cc(OC)c(OC)c(OC)c2)C1=S | 14.3
CC1CCN(CC(O)COC2CC(C)CC(C)(C)C2)CC1.Cl (stereo not drawn) | -54.5
CCOc1cc(C(=O)N=c2sccn2C)cc(Br)c1OC | 8.84
COc1ccc(NC(=O)NC2CCCCC2C)cc1 (stereo not drawn) | 6.49
Cc1ccc(C(=O)N/N=C\c2c(C)nn(-c3ccccc3)c2Cl)cn1 | -15.7
Cc1cc(C)cc(N2C(=O)N(c3ccccc3C)C3CS(=O)(=O)CC32)c1 (stereo not drawn) | 5.12
O=C(CCS(=O)(=O)Cc1ccccc1)Nc1nnc(C(F)(F)F)s1 | 15.8
COC(=O)CNc1nc(Cl)nc(NC2CCCCC2)n1 | 8.02
CN1CCN(c2ccc(-c3ccnn3C(=O)Nc3ccccc3)cc2)CC1 | -11.5
COc1ccc(-c2ccc3c(c2)S(=O)(=O)c2cccc(C(=O)NCCOc4ccccc4)c2C3=O)cc1OC | -3.55

Compound | hERG current change (%, negative = inhibition) at 10uM [%]
Cc1cccc(N(C(=O)c2ccc(CN3CCOCC3)o2)C(C(=O)NC2CCCCC2)c2ccc(F)cc2)c1 (stereo not drawn) | 19.7
CN(CCCNC(=O)c1nn(C)c2c1CS(=O)(=O)c1ccccc1-2)Cc1ccccc1 | -46.9
COc1ccc(C(=O)NCCNc2ccc([N+](=O)[O-])cn2)cc1 | -13.3
COc1nccc(C(F)(F)F)c1C(=O)NC(=O)Nc1c(C)cccc1C | -3.84
Cc1ccc(Nc2ncnc3c2oc2ccccc23)cc1 | -6.97
CCCn1c(N2CCN(C(=O)Nc3ccc(Cl)cc3)CC2)nc2ccccc21 | -16.8
CNC(=O)NC(=O)C(OC(=O)Cc1cccc(C(F)(F)F)c1)c1ccccc1 (stereo not drawn) | 17
CCOc1ccc(NC(=O)COc2nsnc2N2CCOCC2)cc1 | -41.7
CCn1cc(Cl)c(C(=O)N2N=C(c3ccc4ccccc4c3)CC2c2ccccc2O)n1 (stereo not drawn) | 0.0432
COc1ccc(-c2sc3ccccc3c2C#CC2(O)CCCCC2)cc1 | 15
COc1ccc(C2=NOC3(CC(=O)N(c4ccc(F)cc4)C3=O)C2)c(OC)c1 (stereo not drawn) | 4.15
Cc1cccc2c1ncc1c(=O)n(-c3ccccc3)[nH]c12 | 11.1
CCOC(=O)C(=O)NNc1ccc(C)cc1 | -2.03
O=C(/C=C/c1ccco1)Nc1sc2c(c1C(=O)O)CCC2 | -2.95
CCC(=O)Nc1ccc(N2CCOCC2)c(S(=O)(=O)Nc2ccc(Cl)cc2)c1 | -25.2
COc1ccc(/C=N/NC(=O)c2ccncc2)cc1CN1CCOCC1 | 3.71
O=C(COc1ccc(S(=O)(=O)N2CCOCC2)cc1Cl)N1CCCC1 | 17
Cc1cc2oc(=O)cc(CN3CCCCC3C)c2cc1C (stereo not drawn) | 12.4
COc1ccc(CC(=O)NCc2nnc(SCC(=O)Nc3nccs3)n2C)cc1 | 17.3
CCOC(=O)N1CCC(NC(=O)C(C)n2c3ccccc3c3cnn(C)c(=O)c32)CC1 (stereo not drawn) | -1.12
Cc1nnc(NC(=O)CSc2nnc3c(n2)[nH]c2ccc(Br)cc23)s1 | 22.6
